Data published in the supplement of paper PMC10037445.
Where “and” joins values, the source holds several entries; their conditions need not be identical. Identical values can stand only once. In all, about 2,900 compounds were measured (“NF-kB SEAP reporter activity, fold change vs agonist alone”: median about 0.99, highest 2% from about 2.6 on). The list shows a part of the results.

Key:
RAW-Dual [1] = assay: NF-kB SEAP reporter activity, fold change vs agonist alone; cytotoxicity flag (confluency mask): not cytotoxic; higher = enhanced NF-kB activity
How it was run: (§1)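 RAW-Dual macrophages (50,000 cells/well in DMEM, 384-well plates) received 50 nL of library stock by pin tool, then a PRR agonist 1 h later, and were kept at 37 °C, 5% CO2. After 20 hours, supernatant was read for IRF by QuantiLuc luminescence and for NF-κB by QuantiBlue absorbance at 620 nm. Reporter activity is fold change over agonist-alone wells. Cytotoxic wells had IncuCyte confluency below 70% of agonist controls in both mask sets.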

RAW-Dual [2] = assay: NF-kB SEAP reporter activity, fold change vs agonist alone; higher = enhanced NF-kB activity
How it was run: as §1

RAW-Dual [3] = assay: NF-kB SEAP reporter activity, fold change vs agonist alone; cytotoxicity flag (confluency mask): cytotoxic (confluency <70% of control); higher = enhanced NF-kB activity
How it was run: as §1

[4] = agonist: ODN 1826 (TLR9) 0.5 ug/mL
[5] = agonist: Pam2CSK4 (TLR2/6) 0.1 ug/mL
[6] = agonist: Pam3CSK4 (TLR2/1) 0.1 ug/mL
[7] = library stock concentration (final ~1000-fold dilution): 10 mM, cytotoxicity flag (confluency mask): not cytotoxic, agonist: Imiquimod (TLR7) […]
[8] = library stock concentration (final ~1000-fold dilution): 10 mM, cytotoxicity flag (confluency mask): not cytotoxic, agonist: MPLA (TLR4) […]
[9] = library stock concentration (final ~1000-fold dilution): 10 mM, cytotoxicity flag (confluency mask): cytotoxic (confluency <70% of control), agonist: Imiquimod (TLR7) […]
[10] = library stock concentration (final ~1000-fold dilution): 10 mM, cytotoxicity flag (confluency mask): cytotoxic (confluency <70% of control), agonist: MPLA (TLR4) […]

Question: What does the source list for `CCCC(CCC)C(=O)O` (library stock concentration (final ~1000-fold dilution): 10 mM)?
Answer: NF-kB SEAP reporter activity (RAW-Dual [1]; agonist: LPS (TLR4) 0.1 ug/mL): 1.3 and 1.11; NF-kB SEAP reporter activity (RAW-Dual [1]; [4]): 0.895 and 1.15 and 1.02; NF-kB SEAP reporter activity (RAW-Dual [1]; [5]): 0.949 and 1.22 and 1.02; NF-kB SEAP reporter activity (RAW-Dual [1]; [6]): 1.25 and 1.32 and 1.08

Question: With `CC12CCC(O)CC1=CCC1C2CCC2(C)C(C(O)CC(O)(C(F)(F)F)C(F)(F)F)CCC12` (centres undefined) (library stock concentration (final ~1000-fold dilution): 10 mM) as the compound, how does the “NF-kB SEAP reporter activity” value (RAW-Dual [1]; agonist: LPS (TLR4) 0.1 ug/mL) read?
Answer: Its value is 0.54.

Question: And the “NF-kB SEAP reporter activity” value (RAW-Dual [1]; [4])?
Answer: Its value is 0.663.

Question: And the “NF-kB SEAP reporter activity” value (RAW-Dual [1]; [5])?
Answer: The value was 0.739.

Question: And the “NF-kB SEAP reporter activity” value (RAW-Dual [1]; [6])?
Answer: The value was 0.489.

Question: What does the source list for `CC12CCC(O)CC1=CCC1C2CCC2(C)C(C(O)CC(O)(C(F)(F)F)C(F)(F)F)CCC12` (centres undefined)?
Answer: NF-kB SEAP reporter activity (RAW-Dual [2]; [7]): 0.815; NF-kB SEAP reporter activity (RAW-Dual [2]; [8]): 0.786

Question: `Nc1ccn(C2OC(CO)C(O)C2(F)F)c(=O)n1` (centres undefined) was tested. Which “NF-kB SEAP reporter activity” value (RAW-Dual [2]; [9]) did it give?
Answer: The value was 2.14.

Question: What about the “NF-kB SEAP reporter activity” value (RAW-Dual [2]; [10]) of the same compound?
Answer: The value was 1.35.

Question: Which results are given for `Nc1ccn(C2OC(CO)C(O)C2(F)F)c(=O)n1` (centres undefined) (library stock concentration (final ~1000-fold dilution): 10 mM)?
Answer: NF-kB SEAP reporter activity (RAW-Dual [3]; agonist: LPS (TLR4) 0.1 ug/mL): 0.91; NF-kB SEAP reporter activity (RAW-Dual [3]; [4]): 1.88; NF-kB SEAP reporter activity (RAW-Dual [3]; [5]): 1.18; NF-kB SEAP reporter activity (RAW-Dual [3]; [6]): 1.05

Question: What does the source list for `CC(O)C(=O)O.CN1CCN(c2ccc3nc(-c4c(N)c5c(F)cccc5[nH]c4=O)[nH]c3c2)CC1`?
Answer: NF-kB SEAP reporter activity (RAW-Dual [2]; [9]): 0.335; NF-kB SEAP reporter activity (RAW-Dual [2]; [10]): 0.591

Question: For `CC(O)C(=O)O.CN1CCN(c2ccc3nc(-c4c(N)c5c(F)cccc5[nH]c4=O)[nH]c3c2)CC1` (library stock concentration (final ~1000-fold dilution): 10 mM), which “NF-kB SEAP reporter activity” value (RAW-Dual [3]; agonist: LPS (TLR4) 0.1 ug/mL) is on record?
Answer: Its value is 0.341.

Question: And the “NF-kB SEAP reporter activity” value (RAW-Dual [3]; [4])?
Answer: Its value is 0.18.

Question: What about the “NF-kB SEAP reporter activity” value (RAW-Dual [3]; [5]) of the same compound?
Answer: The value was 0.15.

Question: What about the “NF-kB SEAP reporter activity” value (RAW-Dual [3]; [6]) of the same compound?
Answer: Its value is 0.219.

Question: What does the source list for `O=C(NC1CCNCC1)c1n[nH]cc1NC(=O)c1c(Cl)cccc1Cl` (library stock concentration (final ~1000-fold dilution): 10 mM)?
Answer: NF-kB SEAP reporter activity (RAW-Dual [3]; agonist: LPS (TLR4) 0.1 ug/mL): 1.14; NF-kB SEAP reporter activity (RAW-Dual [3]; [4]): 2.38; NF-kB SEAP reporter activity (RAW-Dual [3]; [5]): 0.837; NF-kB SEAP reporter activity (RAW-Dual [3]; [6]): 1.37

Question: What does the source list for `O=C(NC1CCNCC1)c1n[nH]cc1NC(=O)c1c(Cl)cccc1Cl`?
Answer: NF-kB SEAP reporter activity (RAW-Dual [2]; [9]): 2.4; NF-kB SEAP reporter activity (RAW-Dual [2]; [10]): 1.28

Question: Which “NF-kB SEAP reporter activity” value (RAW-Dual [1]; agonist: LPS (TLR4) 0.1 ug/mL) does the source give for `O=CN1CC/C(=C/c2ccc3c(c2)OCO3)C1=O` (library stock concentration (final ~1000-fold dilution): 10 mM) here?
Answer: Its value is 1.17.

Question: What about the “NF-kB SEAP reporter activity” value (RAW-Dual [1]; [4]) of the same compound?
Answer: Its value is 0.856.

Question: What about the “NF-kB SEAP reporter activity” value (RAW-Dual [1]; [5]) of the same compound?
Answer: Its value is 1.31.

Question: And the “NF-kB SEAP reporter activity” value (RAW-Dual [1]; [6])?
Answer: Its value is 1.37.

Question: For `O=CN1CC/C(=C/c2ccc3c(c2)OCO3)C1=O`, which “NF-kB SEAP reporter activity” value (RAW-Dual [2]; [7]) is on record?
Answer: The value was 1.03.

Question: And the “NF-kB SEAP reporter activity” value (RAW-Dual [2]; [8])?
Answer: Its value is 1.09.

Question: With `CCCCC1=NC2(CCCC2)C(=O)N1Cc1ccc(-c2ccccc2-c2nn[nH]n2)cc1` as the compound, how does the “NF-kB SEAP reporter activity” value (RAW-Dual [2]; library stock concentration (final ~1000-fold dilution): 2 mM, cytotoxicity flag (confluency mask): not cytotoxic, agonist: Imiquimod (TLR7) […]) read?
Answer: Its value is 1.01.

Question: And the “NF-kB SEAP reporter activity” value (RAW-Dual [2]; library stock concentration (final ~1000-fold dilution): 2 mM, cytotoxicity flag (confluency mask): not cytotoxic, agonist: MPLA (TLR4) […])?
Answer: Its value is 1.05.

Question: With `CCCCC1=NC2(CCCC2)C(=O)N1Cc1ccc(-c2ccccc2-c2nn[nH]n2)cc1` (library stock concentration (final ~1000-fold dilution): 2 mM) as the compound, how does the “NF-kB SEAP reporter activity” value (RAW-Dual [1]; agonist: LPS (TLR4) 0.1 ug/mL) read?
Answer: The value was 1.22.

Question: And the “NF-kB SEAP reporter activity” value (RAW-Dual [1]; [4])?
Answer: The value was 1.

Question: What about the “NF-kB SEAP reporter activity” value (RAW-Dual [1]; [5]) of the same compound?
Answer: Its value is 1.06.

Question: What about the “NF-kB SEAP reporter activity” value (RAW-Dual [1]; [6]) of the same compound?
Answer: Its value is 1.12.

Question: What does the source list for `COc1ccc(-c2coc3cc(O)cc(O)c3c2=O)cc1` (library stock concentration (final ~1000-fold dilution): 10 mM)?
Answer: NF-kB SEAP reporter activity (RAW-Dual [1]; agonist: LPS (TLR4) 0.1 ug/mL): 1.17; NF-kB SEAP reporter activity (RAW-Dual [1]; [4]): 1.32; NF-kB SEAP reporter activity (RAW-Dual [1]; [5]): 1.14; NF-kB SEAP reporter activity (RAW-Dual [1]; [6]): 1.21

Question: Which results are given for `COc1ccc(-c2coc3cc(O)cc(O)c3c2=O)cc1`?
Answer: NF-kB SEAP reporter activity (RAW-Dual [2]; [7]): 1.36; NF-kB SEAP reporter activity (RAW-Dual [2]; [8]): 1.15

Question: How did the “NF-kB SEAP reporter activity” value (RAW-Dual [3]; agonist: LPS (TLR4) 0.1 ug/mL) turn out when `CC(C)(C)c1cc(/C=C(\C#N)C(N)=S)cc(C(C)(C)C)c1O` (library stock concentration (final ~1000-fold dilution): 10 mM) was run?
Answer: The value was 1.9.

Question: And the “NF-kB SEAP reporter activity” value (RAW-Dual [3]; [4])?
Answer: Its value is 0.73.

Question: What about the “NF-kB SEAP reporter activity” value (RAW-Dual [3]; [5]) of the same compound?
Answer: Its value is 0.297.

Question: What about the “NF-kB SEAP reporter activity” value (RAW-Dual [3]; [6]) of the same compound?
Answer: The value was 0.648.

Question: What does the source list for `CC(C)(C)c1cc(/C=C(\C#N)C(N)=S)cc(C(C)(C)C)c1O`?
Answer: NF-kB SEAP reporter activity (RAW-Dual [2]; [9]): 2; NF-kB SEAP reporter activity (RAW-Dual [2]; [10]): 1.94

Question: How did the “NF-kB SEAP reporter activity” value (RAW-Dual [2]; [7]) turn out when `CCCCS(=O)(=O)NC(Cc1ccc(OCCCCC2CCNCC2)cc1)C(=O)O.Cl.O` (centres undefined) was run?
Answer: Its value is 0.94.

Question: What about the “NF-kB SEAP reporter activity” value (RAW-Dual [2]; [8]) of the same compound?
Answer: The value was 1.02.
